In the supplement of paper PMC4604168 (melanoma cell lines):
The list shows a part of the results. Many values rest on one well or one pass, so single values are uncertain.

Key:
Experiment in all cases: cell count relative to DMSO control; melanoma cells; higher = more viable cells
Details in all cases: library dose: standard library concentration; 72 h
[1] = tested on: G361
[2] = tested on: IPC-298
[3] = tested on: IST-MEL1
[4] = tested on: LB2518-MEL
[5] = tested on: LOXIMVI
[6] = tested on: MEL-HO
[7] = tested on: MZ2-MEL
[8] = tested on: MeWo
[9] = tested on: RPMI7951
[10] = tested on: RVH-421
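Also: cells treated in 1,536-well plates, then fixed and DAPI-stained, with nuclei counted from automated high-throughput microscope images.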

| Compound | cell count [1] [%] | cell count [2] [%] | cell count [3] [%] | cell count [4] [%] | cell count [5] [%] | cell count [6] [%] | cell count [7] [%] | cell count [8] [%] | cell count [9] [%] | cell count [10] [%] |
| --- | --- | --- | --- | --- | --- | --- | --- | --- | --- | --- |
| C[C@]1(c2nc3c(C(N)=O)cccc3[nH]2)CCCN1 [Veliparib] + Cn1cncc1[C@@](N)(c1ccc(Cl)cc1)c1ccc2c(c1)c(-c1cccc(Cl)c1)cc(=O)n2C [tipifarnib] (first compound 7 µM, partner dose 0.05 µM) | 63.9 | 86.4 | 62.9 | 52.6 | 53.2 | 85.8 | 96.5 | 66.8 | 59.1 | 64.3 |
| C[C@]1(c2nc3c(C(N)=O)cccc3[nH]2)CCCN1 [Veliparib] + CCc1ccc(CCOc2ccc(CC3SC(=O)NC3=O)cc2)nc1 [pioglitazone] (first compound 7 µM, partner dose 10 µM) | 88.6 | 96.5 | 91.3 | 75.7 | 81 | 101 | 87 | 102 | 98 | 83.5 |
| C[C@]1(c2nc3c(C(N)=O)cccc3[nH]2)CCCN1 [Veliparib] + C=CCn1c(=O)c2cnc(Nc3ccc(N4CCN(C)CC4)cc3)nc2n1-c1cccc(C(C)(C)O)n1 [MK1775] (first compound 7 µM, partner dose 0.1 µM) | 91.5 | 96.8 | 108 | 45.2 | 84.9 | 89.7 | 108 | 72.8 | 66.1 | 98.3 |
| Cc1nc(Nc2ncc(C(=O)Nc3c(C)cccc3Cl)s2)cc(N2CCN(CCO)CC2)n1 [dasatanib] + COc1cc2c(Oc3ccc4[nH]c(C)cc4c3F)ncnc2cc1OCCCN1CCCC1 [cediranib] (first compound 0.02 µM, partner dose 2 µM) | 67.9 | 95.8 | 71.8 | 92.5 | 12.6 | 95.1 | 66.9 | 62.4 | 10.8 | 48.6 |
| Cc1nc(Nc2ncc(C(=O)Nc3c(C)cccc3Cl)s2)cc(N2CCN(CCO)CC2)n1 [dasatanib] + COc1ccc(-c2ccc3c(N4CCOCC4)nc(N4C[C@@H](C)O[C@@H](C)C4)nc3n2)cc1CO [KU0063794] (first compound 0.02 µM, partner dose 0.1 µM) | 60.4 | 70 | 52.3 | 61.5 | 6.63 | 71.6 | 28.7 | 64.9 | 18.9 | 48.9 |
| C=CCn1c(=O)c2cnc(Nc3ccc(N4CCN(C)CC4)cc3)nc2n1-c1cccc(C(C)(C)O)n1 + CO[C@@H]1[C@H](N(C)C(=O)c2ccccc2)C[C@H]2O[C@]1(C)n1c3ccccc3c3c4c(c5c6ccccc6n2c5c31)C(=O)NC4 [Midostaurin] (first compound 0.1 µM, partner dose 0.4 µM) | 48.3 | 39.9 | 57.8 | 46.9 | 48.3 | 65.9 | 49.9 | 50.7 | 31 | 64.1 |
| CN(C)S(=O)(=O)c1ccc2c(c1)/C(=C/c1cc3c([nH]1)CCCC3)C(=O)N2 + O=C1NC(=O)/C(=C/c2ccc(-c3ccc(F)cc3O)o2)S1 [AS252424] (first compound 2 µM, partner dose 5 µM) | 64.2 | 64.6 | 86.8 | 65.7 | 108 | 74.6 | 72 | 74.3 | 51.9 | 84.4 |
| C=CCn1c(=O)c2cnc(Nc3ccc(N4CCN(C)CC4)cc3)nc2n1-c1cccc(C(C)(C)O)n1 + O=c1cc(-c2cccc3c2Sc2ccccc2S3)oc(N2CCOCC2)c1 [KU55933] (first compound 0.1 µM, partner dose 5 µM) | 54.8 | 71.7 | 90.5 | 50.8 | 103 | 80.4 | 83.2 | 69.6 | 56.3 | 84.2 |
| C=CCn1c(=O)c2cnc(Nc3ccc(N4CCN(C)CC4)cc3)nc2n1-c1cccc(C(C)(C)O)n1 + CN(C)S(=O)(=O)c1ccc2c(c1)/C(=C/c1cc3c([nH]1)CCCC3)C(=O)N2 [SU6656] (first compound 0.1 µM, partner dose 2 µM) | 81.4 | 72.8 | 92.6 | 51.5 | 94 | 87.2 | 93.6 | 74.7 | 47.3 | 76.3 |
| Cc1nc(Nc2ncc(C(=O)Nc3c(C)cccc3Cl)s2)cc(N2CCN(CCO)CC2)n1 [dasatanib] + O=C1NC(=O)/C(=C/c2ccc(-c3ccc(F)cc3O)o2)S1 [AS252424] (first compound 0.02 µM, partner dose 5 µM) | 69.5 | 79.3 | 73.9 | 85.8 | 47.8 | 57.9 | 53.5 | 75.8 | 50.5 | 79.5 |
| C=CCn1c(=O)c2cnc(Nc3ccc(N4CCN(C)CC4)cc3)nc2n1-c1cccc(C(C)(C)O)n1 + O=C(Nc1cccc(Cl)c1)Nc1ncc(CCNc2ncnc3ccsc23)s1 [SNS314] (first compound 0.1 µM, partner dose 0.004 µM) | 78.6 | 79 | 54.2 | 57.7 | 66.7 | 76.2 | 82.2 | 43.4 | 44.2 | 73.9 |
| CN(C)S(=O)(=O)c1ccc2c(c1)/C(=C/c1cc3c([nH]1)CCCC3)C(=O)N2 + O=c1cc(-c2cccc3c2Sc2ccccc2S3)oc(N2CCOCC2)c1 [KU55933] (first compound 2 µM, partner dose 5 µM) | 36.1 | 70.2 | 90.3 | 71.9 | 175 | 71.1 | 90.3 | 73.4 | 40.6 | 102 |
| NC(=O)Nc1cc(-c2cccc(F)c2)sc1C(=O)N[C@H]1CCCNC1 + Cn1cc(/C=C2\C(=O)Nc3cccnc32)c2ccccc21 [GW441756] (first compound 0.1 µM, partner dose 2 µM) | 93.8 | 75.3 | 98.3 | 61.6 | 92.3 | 79.4 | 89.1 | 83.6 | 39.1 | 90.2 |
| C=CCn1c(=O)c2cnc(Nc3ccc(N4CCN(C)CC4)cc3)nc2n1-c1cccc(C(C)(C)O)n1 + CN(NC(=O)CC(=O)NN(C)C(=S)c1ccccc1)C(=S)c1ccccc1 [STA4783] (first compound 0.1 µM, partner dose 0.03 µM) | 37.2 | 57.8 | 23 |  | 65.1 | 74.3 |  | 22 | 59.2 | 63.7 |
| Cc1nc(Nc2ncc(C(=O)Nc3c(C)cccc3Cl)s2)cc(N2CCN(CCO)CC2)n1 [dasatanib] + COCC[n+]1c2c(n(Cc3cnccn3)c1C)C(=O)c1ccccc1C2=O [YM155] (first compound 0.02 µM, partner dose 0.002 µM) | 79.2 | 38.6 | 43.7 | 23.3 | 17.6 | 65.4 | 18.6 | 40.7 | 20.8 | 60.3 |
| C=CCn1c(=O)c2cnc(Nc3ccc(N4CCN(C)CC4)cc3)nc2n1-c1cccc(C(C)(C)O)n1 + CC(C)CCN1c2nc(Nc3cc(F)c(O)c(F)c3)ncc2N(C)C(=O)C1C [BID1870] (first compound 0.1 µM, partner dose 1 µM) | 59.8 | 70.1 | 89.1 | 73.4 | 62.9 | 69.3 | 102 | 58.3 | 77.1 | 69.1 |
| Cc1nc(Nc2ncc(C(=O)Nc3c(C)cccc3Cl)s2)cc(N2CCN(CCO)CC2)n1 [dasatanib] + CCc1ccc(CCOc2ccc(CC3SC(=O)NC3=O)cc2)nc1 [pioglitazone] (first compound 0.02 µM, partner dose 10 µM) | 62.6 | 83.6 | 74.9 | 85.1 | 21 | 78.5 | 56.7 | 88.7 | 42 | 57.6 |
| C[C@]1(c2nc3c(C(N)=O)cccc3[nH]2)CCCN1 [Veliparib] + O=C(CCCCCCC(=O)Nc1ccccc1)NO [vorinostat] (first compound 7 µM, partner dose 0.4 µM) | 76 | 99.9 | 94.7 | 73.4 | 56.8 | 85.2 | 109 | 81.3 | 84.4 | 82.1 |
| C[C@]1(c2nc3c(C(N)=O)cccc3[nH]2)CCCN1 [Veliparib] + O=C(Nc1cccc(Cl)c1)Nc1ncc(CCNc2ncnc3ccsc23)s1 [SNS314] (first compound 7 µM, partner dose 0.004 µM) | 66.8 | 86.9 | 65.1 | 67.7 | 84.8 | 75.6 | 91.7 | 74.2 | 64.4 | 81.3 |
| CN(C)S(=O)(=O)c1ccc2c(c1)/C(=C/c1cc3c([nH]1)CCCC3)C(=O)N2 + O=C(O)c1ccc(-c2c[nH]c3ncc(-c4ccccc4)cc23)cc1C1CCCC1 [GSK650394] (first compound 2 µM, partner dose 0.8 µM) | 51.9 | 53 | 63.9 | 72.3 | 84.9 | 77 | 90.7 | 73.8 | 57.1 | 84.8 |
| CO[C@@H]1[C@H](N(C)C(=O)c2ccccc2)C[C@H]2O[C@]1(C)n1c3ccccc3c3c4c(c5c6ccccc6n2c5c31)C(=O)NC4 [Midostaurin] + COc1cc2c(Oc3ccc4[nH]c(C)cc4c3F)ncnc2cc1OCCCN1CCCC1 [cediranib] (first compound 0.4 µM, partner dose 2 µM) | 49.8 | 66.9 | 47.4 | 92.6 | 39.9 | 95.1 | 90.6 | 84.3 | 54 | 73.8 |
